The full ranking holds about 4,100 sequences; the median of “arbitrary fluorescence units” is about 780, and the highest 2% start at about 22,000. The list shows a part of the results.
biological target: T1, ETS1 (UniProt P14921); experiment: ETS1 binding intensity (PBM fluorescence), ETS1 alone (arbitrary fluorescence units); higher = stronger binding; settings: ETS1 concentration 1 nM; RUNX1 concentration 0 nM
T1 sequence: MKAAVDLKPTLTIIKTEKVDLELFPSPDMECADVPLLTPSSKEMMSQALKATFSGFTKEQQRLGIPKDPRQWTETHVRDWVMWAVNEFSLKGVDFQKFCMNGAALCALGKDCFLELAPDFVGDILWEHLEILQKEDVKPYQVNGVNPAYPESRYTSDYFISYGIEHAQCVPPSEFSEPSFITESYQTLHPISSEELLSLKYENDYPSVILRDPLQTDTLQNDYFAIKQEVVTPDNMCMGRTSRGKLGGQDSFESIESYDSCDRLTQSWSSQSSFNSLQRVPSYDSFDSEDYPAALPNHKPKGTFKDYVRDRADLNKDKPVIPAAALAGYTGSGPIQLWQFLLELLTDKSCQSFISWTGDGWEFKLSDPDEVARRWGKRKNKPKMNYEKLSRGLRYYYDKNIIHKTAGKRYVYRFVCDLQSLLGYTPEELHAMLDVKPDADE
In short: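 Full-length recombinant human ETS1 (1 nM, no RUNX1) was incubated, per standard PBM protocols, on double-stranded Agilent 4 × 180k arrays of 36-bp genomic probes whose RUNX1 partner site was mutated. Bound ETS1 was detected with anti-ETS1 antibody (Cell Signaling Technology 14069) and Alexa488-conjugated secondary antibody, then scanned on a GenePix 4400A. Binding level is spot fluorescence intensity, summarised over replicate spots (four printed per sequence) and not normalised.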

Row | Sequence | ETS1 binding intensity
1 | ATGCCAAGGGACTTCCCTCCACAAGCGCCCCCAGCT | 471
2 | CCAGGAGGGATGGGGAAGTTCACCAGACACTCCATG | 444
3 | GCAGAAGGATTTCCTGTTTCAGGCAACCCCAGCGAC | 18000
4 | AAGCACATCTGGTGGGGCTCTTCCGTGCTGGCCACA | 364
5 | CAGCATGAGGGTGCACACACCGCTTCCTTAGAGGTT | 757
6 | GTCACAGGAAAGAAGGAGCCTCGCCTTAACGGCACC | 587
7 | TGCCCGAGGGCCGCCGCCACCGTATTTCCGCGTTTT | 397
8 | AGCGCCGGAAGTGTGTCTGCGTAAAACTGCAGCTCG | 9590
9 | CAACTATAACCCCAACTACGGCCAACATCCGAGTGC | 473
10 | AGCGGCAGTAGAGGAAGCCTTCGCTGTCCATGGCCA | 395
11 | TCGCAGAGAATTCTTCCGGAGGCGGCCACGGACATC | 1040
12 | GTGGCTATGGGAAGTGGGGTGCTGTTTCTGCCGGGG | 576
13 | ATAAAGAAAAGCACTATCCAGTAACATCCGGCTCAG | 2580
14 | TCACATCCTGTAATGGTTTGCGCATATCACAGTTCT | 19000
15 | ACGTTTCGGGGTTTCCGGGCCAGCGGATTCGGGCGC | 4020
16 | TTTACGGGCGATTCCCTCTCAGGACTTCCGGACAGG | 2120
17 | CAGTTCCAGGAAGCAGCCCCAAGCTTGTAGCCCTGA | 1110
18 | GACTCCATTTCCCGTCGGCTCACGGTGGGAGCGCCG | 7570
19 | TAAATGTTTCCTAAAAGCTCTTTCATAAACTACAGT | 626
20 | CTATTTTGGTGCCTGTTACCTACAGGAAATGAGACA | 1630
21 | CAGGGTGGAAACAGGAAGAGAAACCTCACTTAACCT | 1880
22 | GGTGTTGTCAACACTGGGACAAGTTCTTCCGGGTCT | 474
23 | CAGAGCAGAGAGGAAGTGGTGGTGGCAACAGTCCCA | 2250
24 | GCTGGGGCCCCCTCCCAAAACCCGGGGAAGTGGATT | 349
25 | TGGCATAAATATGGGGTCACTTATCCTGCCTTCTCA | 389
26 | TCAACAGCAGTAACGACAAGTCTTTCCTGTCCCAGA | 889
27 | TCTGCCGCCAGCCCATCCGCGACCGCCTCCAGATCT | 343

Row | Sequence | ETS1 binding intensity
28 | CCTAAGCGGCTAAGGAACTGGCTTTGACAGGAAGTG | 1520
29 | CCTTTGGGGTAGCAGTGGCCCCGCGCGGAGGAAGTT | 303
30 | CAAGGTTGAGCACACACCACCCTTCCGGAGCAGCTC | 634
31 | GGGAGGCCCCATCCTGTGTGGCTGTGACTTTTGCCT | 2160
32 | GTCACACTGTAGTTTTACACGGAAGCTCAGGTTGCC | 516
33 | TGAGCGCCGGAACAGCTCTCCCAGCAAGCACCTCTC | 372
34 | TTCCATTACGGGCTCCCAACAGTACCCTTCCTCCCT | 333
35 | TGTCCACCTCTACGGAAGTGCGCCGCTGTCCGCCAG | 951
36 | CAGCCCAGTGGGAAGTGGGAGGGGCGGCCAGCAAGA | 622
37 | CTCTGGCAGGAAGCTCTGAGGGCTAAACCCCAAAAA | 1630
38 | CGACCGGAACCACTCTGAGGCGCTGCCGTAGACACC | 1100
39 | CGGGCACGTCCTACGGCAGCAACGTCCGCCGCGCCG | 540
40 | ATAGACGCGTGGATTTGTTTTTAAACATCCTGAGCA | 370
41 | ACCCAGCTGTGATTTGATCTCACACTTCCTTCACAC | 525
42 | CATAGTGGATCTACGGGTTAGAGGAAATAGGCTGCA | 506
43 | GAGCACATTTCCTTTTGCTTCCAGATACGACAGTGA | 3560
44 | ACCTTCGCCGGATGCTGTGGCTGAAACTACAGCATT | 3380
45 | CTGTTTCCTGCCTTTGCTGTCTGTGAGCGCATCAGT | 9550
46 | GTACGACAGCGGGTTCCGGTGACCATGAAGGCGGCA | 2360
47 | AACAGCTTAGGAAGTAAGTGTAGCTTTGCTTAAGAC | 375
48 | GGTGCGGCTGTGCGCGCGGGGCCGGAAGTGTGGGGA | 2840
49 | GAGACTCAAAGCTACACCTTCCCACTTCCTGCAGCC | 1900
50 | CGGCGGCCCCTGCGCCTTCAGGCTTCCTGGCCGTCA | 383
51 | TCCAGGCATTTCCCCCATGTTGGCTCACTGCACTAT | 881
52 | CTGGGGTCGGGGCGAGGGAGCTGCCGGGGAAGTGAG | 513
53 | CTCCTAGTGGGGCGCAGGGACAGGAAGCAGGGTTTA | 1140
54 | CGAGAACGGCGCCACTGAGGAACCGGAAACAAGCCA | 3230

Row | Sequence | ETS1 binding intensity
55 | CAGCTGCTGTAGGTGGAGGTGGGCAGGAAGCCCTCC | 539
56 | CCAACAGCAGCGCTACTCCCGGCCGCTTCCGCCTGG | 748
57 | GAGTCGTCAGCGCACACTTGGTTCCGGGCTACATTT | 363
58 | TCCGGTCTCGGGACGTCCGGCCCCGCGCACTCAGCA | 1830
59 | AGTAGAGGAGGAAGTTAAATGTAGTTTTCTGGGTGG | 736
60 | GGCCCAGGAAAGAGGCAGGGGTGCTGTTTCCCTCCG | 306
61 | CTTTTTGGTCTGCCAGGCACGGATTTCCGCCCACTC | 1270
62 | CAAGCTCTTCGGCCTTCGTTCCTCTCTTCCGTTTGC | 521
63 | GCGATTTGGGGTTCCTCCTTAGGAAGCCAGATATGG | 371
64 | CCGAATCTTCGGTGGAACCCGGATGTGGCCGAGGCC | 2240
65 | CCCCTCCCCTCAGCAGCAGGTGTTTCCGTTCGGGTG | 833
66 | CCCAGAGGAAGCCCCATGCCAAGCCCGCCAACGCCA | 435
67 | CTTTGGCGGCTACATGTCCCCCTTTCCGGGAATCTG | 609
68 | CTGACTTGTTGTAGTCTCTGCCACTTCCTGAGGTGT | 668
69 | CGTTCGGGGTTCCTCTCGGCCCCGGATGTGACTGTT | 998
70 | AGCTCAATTTCCTGGCGTGTAACATGGCCCCAAGGG | 4800
71 | TCCAACGTCAACATGCAAAACTCAGAGGAAACGCAG | 437
72 | CTCTCTTTCCTGTTGAGTAATCGAGGTCTCTGCTCC | 2800
73 | AGCGGTGTTTCAGGATGTGAGGGCCCTCAGGAGCCG | 621
74 | CAGAAGGTGCTTACGTACTAATTTCCTCTAGGGCTT | 593
75 | GCTTCTGAGGAAGTGCGTTCTGAGGGTAGGTGGAGT | 832
76 | GGGGTCCACGGTGGCTGCCGCATCCGGTTTAGGGGC | 9320
77 | GAGAGCCTACGGCTGGCGTTTGAGGCGGATGGCAGT | 295
78 | GAGCAGGGCTGAGGGGTCTTTACCGTCCGGCTCCGC | 321
79 | AGGCCACCCCCTTCCTCCGCCCGCTGGTCGCAGCCT | 462
80 | AATGCTGAGAACCCCAGGCTCACAGGATGCCCATCT | 383
